This note sets out measurements from the supplement of paper PMC11316812.

Data set [1] relates to MCF7. The experiment in a line: percentage of EdU-negative (G0-arrested) nuclei per well, 72 h; higher = more G0 arrest. Particulars: reference: sequence is the full UniProt precursor, the tested protein was the secreted form or ectodomain.
The subject of data set [2] is hTERT-HMEC. The data set is described as above. The settings on record: reference: sequence is the full UniProt precursor, the tested protein was the secreted form or ectodomain.
Setting [3] is: protein concentration 0.0225 µM.
Where [4] appears, read: protein concentration 0.0102857 µM.
[5] abbreviates: protein concentration 0.102857 µM.
Where [6] appears, read: protein concentration 0.03125 µM.
Where [7] appears, read: protein concentration 0.3125 µM.
Where [8] appears, read: protein concentration 0.0257143 µM.
The mark [9] stands for this setting: protein concentration 0.257143 µM.
Where [10] appears, read: protein concentration 0.00711 µM.
The mark [11] stands for this setting: protein concentration 0.0711 µM.
[12] abbreviates: protein concentration 0.00933 µM.
The mark [13] stands for this setting: protein concentration 0.0933 µM.

± gives the standard deviation of the averaged measurements.
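Note: secreted proteins added to cultured cells, EdU pulse at the end, nuclei found by Hoechst imaging, EdU status from nuclear versus surrounding ring intensity ratio, PBS as neutral control.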

Consider “MLNLLLLALPVLASRAYAAPAPGQALQRVGIVGGQEAPRSKWPWQVSLRVRDRYWMHFCGGSLIHPQWVLTAAHCVGPDVKDLAALRVQLREQHLYYQDQLLPVSRIIVHPQFYTAQIGADIALLELEEPVNVSSHVHTVTLPPASETFPPGMPCWVTGWGDVDNDERLPPPFPLKQVKVPIMENHICDAKYHLGAYTGDDVRIVRDDMLCAGNTRRDSCQGDSGGPLVCKVNGTWLQAGVVSWGEGCAQPNRPGIYTRVTYYLDWIHHYVPKKP”, for which the “percentage of EdU-negative” value in data set [1] (setting [3]) is 23.97 ± 0.13%; in data set [1] (protein concentration 0.225 µM) it was 26.4 ± 0.76%; in data set [2] (setting [3]), 4.99 ± 1.1%; in data set [2] (protein concentration 0.225 µM), 6.02 ± 0.23%.
Take “MNKQRGTFSEVSLAQDPKRQQRKPKGNKSSISGTEQEIFQVELNLQNPSLNHQGIDKIYDCQGLLPPPEKLTAEVLGIICIVLMATVLKTIVLIPFLEQNNFSPNTRTQKARHCGHCPEEWITYSNSCYYIGKERRTWEESLLACTSKNSSLLSIDNEEEMKFLASILPSSWIGVFRNSSHHPWVTINGLAFKHKIKDSDNAELNCAVLQVNRLKSAQCGSSMIYHCKHKL”: the “percentage of EdU-negative” value is 26.3 ± 0.49% in data set [1] (setting [3]), 29.6 ± 1.5% in data set [1] (protein concentration 0.225 µM), 5.25 ± 0.89% in data set [2] (setting [3]) and 4.62 ± 0.25% in data set [2] (protein concentration 0.225 µM).
Regarding “MQLKIMPKKKRLSAGRVPLILFLCQMISALEVPLDPKLLEDLVQPPTITQQSPKDYIIDPRENIVIQCEAKGKPPPSFSWTRNGTHFDIDKDPLVTMKPGTGTLIINIMSEGKAETYEGVYQCTARNERGAAVSNNIVVRPSRSPLWTKEKLEPITLQSGQSLVLPCRPPIGLPPPIIFWMDNSFQRLPQSERVSQGLNGDLYFSNVLPEDTREDYICYARFNHTQTIQQKQPISVKVISVDELNDTIAANLSDTEFYGAKSSRERPPTFLTPEGNASNKEELRGNVLSLECIAEGLPTPIIYWAKEDGMLPKNRTVYKNFEKTLQIIHVSEADSGNYQCIAKNALGAIHHTISVRVKAAPYWITAPQNLVLSPGEDGTLICRANGNPKPRISWLTNGVPIEIAPDDPSRKIDGDTIIFSNVQERSSAVYQCNASNEYGYLLANAFVNVLAEPPRILTPANTLYQVIANRPALLDCAFFGSPLPTIEWFKGAKGSALHEDIYVLHENGTLEIPVAQKDSTGTYTCVARNKLGMAKNEVHLEIKDPTWIVKQPEYAVVQRGSMVSFECKVKHDHTLSLTVLWLKDNRELPSDERFTVDKDHLVVADVSDDDSGTYTCVANTTLDSVSASAVLSVVAPTPTPAPVYDVPNPPFDLELTDQLDKSVQLSWTPGDDNNSPITKFIIEYEDAMHKPGLWHHQTEVSGTQTTAQLKLSPYVNYSFRVMAVNSIGKSLPSEASEQYLTKASEPDKNPTAVEGLGSEPDNLVITWKPLNGFESNGPGLQYKVSWRQKDGDDEWTSVVVANVSKYIVSGTPTFVPYLIKVQALNDMGFAPEPAVVMGHSGEDLPMVAPGNVRVNVVNSTLAEVHWDPVPLKSIRGHLQGYRIYYWKTQSSSKRNRRHIEKKILTFQGSKTHGMLPGLEPFSHYTLNVRVVNGKGEGPASPDRVFNTPEGVPSAPSSLKIVNPTLDSLTLEWDPPSHPNGILTEYTLKYQPINSTHELGPLVDLKIPANKTRWTLKNLNFSTRYKFYFYAQTSAGSGSQITEEAVTTVDEAGILPPDVGAGKVQAVNPRISNLTAAAAETYANISWEYEGPEHVNFYVEYGVAGSKEEWRKEIVNGSRSFFGLKGLMPGTAYKVRVGAVGDSGFVSSEDVFETGPAMASRQVDIATQGWFIGLMCAVALLILILLIVCFIRRNKGGKYPVKEKEDAHADPEIQPMKEDDGTFGEYSDAEDHKPLKKGSRTPSDRTVKKEDSDDSLVDYGEGVNGQFNEDGSFIGQYSGKKEKEPAEGNESSEAPSPVNAMNSFV”, the “percentage of EdU-negative” value in data set [1] (setting [4]) worked out at 23.6 ± 3.6%; in data set [1] (setting [5]), 25.5 ± 1%; in data set [2] (setting [4]) it was 5.35 ± 1.1%; in data set [2] (setting [5]), 6.14 ± 0.51%.
Consider “MQPSSLLPLALCLLAAPASALVRIPLHKFTSIRRTMSEVGGSVEDLIAKGPVSKYSQAVPAVTEGPIPEVLKNYMDAQYYGEIGIGTPPQCFTVVFDTGSSNLWVPSIHCKLLDIACWIHHKYNSDKSSTYVKNGTSFDIHYGSGSLSGYLSQDTVSVPCQSASSASALGGVKVERQVFGEATKQPGITFIAAKFDGILGMAYPRISVNNVLPVFDNLMQQKLVDQNIFSFYLSRDPDAQPGGELMLGGTDSKYYKGSLSYLNVTRKAYWQVHLDQVEVASGLTLCKEGCEAIVDTGTSLMVGPVDEVRELQKAIGAVPLIQGEYMIPCEKVSTLPAITLKLGGKGYKLSPEDYTLKVSQAGKTLCLSGFMGMDIPPPSGPLWILGDVFIGRYYTVFDRDNNRVGFAEAARL”, for which the “percentage of EdU-negative” value stood at 27.24 ± 0.13% in data set [1] (setting [6]), 26.623 ± 0.004% in data set [1] (setting [7]), 5.76 ± 0.58% in data set [2] (setting [6]) and 6.88 ± 0.68% in data set [2] (setting [7]).
For the sequence “MRKGLRATAARCGLGLGYLLQMLVLPALALLSASGTGSAAQDDDFFHELPETFPSDPPEPLPHFLIEPEEAYIVKNKPVNLYCKASPATQIYFKCNSEWVHQKDHIVDERVDETSGLIVREVSIEISRQQVEELFGPEDYWCQCVAWSSAGTTKSRKAYVRIAYLRKTFEQEPLGKEVSLEQEVLLQCRPPEGIPVAEVEWLKNEDIIDPVEDRNFYITIDHNLIIKQARLSDTANYTCVAKNIVAKRKSTTATVIVYVNGGWSTWTEWSVCNSRCGRGYQKRTRTCTNPAPLNGGAFCEGQSVQKIACTTLCPVDGRWTPWSKWSTCGTECTHWRRRECTAPAPKNGGKDCDGLVLQSKNCTDGLCMQTAPDSDDVALYVGIVIAVIVCLAISVVVALFVYRKNHRDFESDIIDSSALNGGFQPVNIKAARQDLLAVPPDLTSAAAMYRGPVYALHDVSDKIPMTNSPILDPLPNLKIKVYNTSGAVTPQDDLSEFTSKLSPQMTQSLLENEALSLKNQSLARQTDPSCTAFGSFNSLGGHLIVPNSGVSLLIPAGAIPQGRVYEMYVTVHRKETMRPPMDDSQTLLTPVVSCGPPGALLTRPVVLTMHHCADPNTEDWKILLKNQAAQGQWEDVVVVGEENFTTPCYIQLDAEACHILTENLSTYALVGHSTTKAAAKRLKLAIFGPLCCSSLEYSIRVYCLDDTQDALKEILHLERQMGGQLLEEPKALHFKGSTHNLRLSIHDIAHSLWKSKLLAKYQEIPFYHVWSGSQRNLHCTFTLERFSLNTVELVCKLCVRQVEGEGQIFQLNCTVSEEPTGIDLPLLDPANTITTVTGPSAFSIPLPIRQKLCSSLDAPQTRGHDWRMLAHKLNLDRYLNYFATKSSPTGVILDLWEAQNFPDGNLSMLAAVLEEMGRHETVVSLAAEGQY”, the “percentage of EdU-negative” value in data set [1] (setting [8]) was 25.01 ± 0.19%; in data set [1] (setting [9]) it was 26.58 ± 0.12%; in data set [2] (setting [8]), 5.22 ± 0.21%; in data set [2] (setting [9]), 9.421 ± 0.016%.
As to “MRPGLSFLLALLFFLGQAAGDLGDVGPPIPSPGFSSFPGVDSSSSFSSSSRSGSSSSRSLGSGGSVSQLFSNFTGSVDDRGTCQCSVSLPDTTFPVDRVERLEFTAHVLSQKFEKELSKVREYVQLISVYEKKLLNLTVRIDIMEKDTISYTELDFELIKVEVKEMEKLVIQLKESFGGSSEIVDQLEVEIRNMTLLVEKLETLDKNNVLAIRREIVALKTKLKECEASKDQNTPVVHPPPTPGSCGHGGVVNISKPSVVQLNWRGFSYLYGAWGRDYSPQHPNKGLYWVAPLNTDGRLLEYYRLYNTLDDLLLYINARELRITYGQGSGTAVYNNNMYVNMYNTGNIARVNLTTNTIAVTQTLPNAAYNNRFSYANVAWQDIDFAVDENGLWVIYSTEASTGNMVISKLNDTTLQVLNTWYTKQYKPSASNAFMVCGVLYATRTMNTRTEEIFYYYDTNTGKEGKLDIVMHKMQEKVQSINYNPFDQKLYVYNDGYLLNYDLSVLQKPQ [Q6UX06]”, the “percentage of EdU-negative” value in data set [1] (setting [10]) was found to be 26.6 ± 2%; in data set [1] (setting [11]), 28.1 ± 3.7%; in data set [2] (setting [10]), 5.22 ± 0.32%; in data set [2] (setting [11]), 6.54 ± 1%.
With “MRRLTRRLVLPVFGVLWITVLLFFWVTKRKLEVPTGPEVQTPKPSDADWDDLWDQFDERRYLNAKKWRVGDDPYKLYAFNQRESERISSNRAIPDTRHLRCTLLVYCTDLPPTSIIITFHNEARSTLLRTIRSVLNRTPTHLIREIILVDDFSNDPDDCKQLIKLPKVKCLRNNERQGLVRSRIRGADIAQGTTLTFLDSHCEVNRDWLQPLLHRVKEDYTRVVCPVIDIINLDTFTYIESASELRGGFDWSLHFQWEQLSPEQKARRLDPTEPIRTPIIAGGLFVIDKAWFDYLGKYDMDMDIWGGENFEISFRVWMCGGSLEIVPCSRVGHVFRKKHPYVFPDGNANTYIKNTKRTAEVWMDEYKQYYYAARPFALERPFGNVESRLDLRKNLRCQSFKWYLENIYPELSIPKESSIQKGNIRQRQKCLESQRQNNQETPNLKLSPCAKVKGEDAKSQVWAFTYTQQILQEELCLSVITLFPGAPVVLVLCKNGDDRQQWTKTGSHIEHIASHLCLDTDMFGDGTENGKEIVVNPCESSLMSQHWDMVSS [Q96FL9]”, the “percentage of EdU-negative” value was found to be 26.8 ± 3.7% in data set [1] (setting [12]), 24.5 ± 0.55% in data set [1] (setting [13]), 5.05 ± 0.54% in data set [2] (setting [12]) and 5.18 ± 0.58% in data set [2] (setting [13]).
For “MSERVERNWSTGGWLLALCLAWLWTHLTLAALQPPTATVLVQQGTCEVIAAHRCCNRNRIEERSQTVKCSCFSGQVAGTTRAKPSCVDASIVLQRWWCQMEPCLPGEECKVLPDLSGWSCSSGHKVKTTKVTR [Q7Z5A8]”, the “percentage of EdU-negative” value in data set [1] (setting [3]) was 25.2 ± 0.76%; in data set [1] (protein concentration 0.225 µM), 27.3 ± 1.5%; in data set [2] (setting [3]), 4.52 ± 0.85%; in data set [2] (protein concentration 0.225 µM), 5.58 ± 0.31%.
“MSGSSLPSALALSLLLVSGSLLPGPGAAQNAGFVKSPMSETKLTGDAFELYCDVVGSPTPEIQWWYAEVNRAESFRQLWDGARKRRVTVNTAYGSNGVSVLRITRLTLEDSGTYECRASNDPKRNDLRQNPSITWIRAQATISVLQKPRIVTSEEVIIRDSPVLPVTLQCNLTSSSHTLTYSYWTKNGVELSATRKNASNMEYRINKPRAEDSGEYHCVYHFVSAPKANATIEVKAAPDITGHKRSENKNEGQDATMYCKSVGYPHPDWIWRKKENGMPMDIVNTSGRFFIINKENYTELNIVNLQITEDPGEYECNATNAIGSASVVTVLRVRSHLAPLWPFLGILAEIIILVVIIVVYEKRKRPDEVPDDDEPAGPMKTNSTNNHKDKNLRQRNTN [Q9Y639]”: the “percentage of EdU-negative” value in data set [1] (setting [8]) was found to be 24.7 ± 0.97%; in data set [1] (setting [9]) it was 26.5 ± 0.83%; in data set [2] (setting [8]) it was 5.56 ± 0.45%; in data set [2] (setting [9]), 5.23 ± 0.17%.
